# Reference: the supplement of paper PMC4967469
# pIC50: −log10 of the molar value. IC50 is the fitted dose that halves viability relative to control wells, and lower means more sensitive; a limit (>, <) means that the fit lies beyond the doses tested. AUC, from the same fit, is the share of area under the viability curve across the 256-fold dose range; values near 1 show little effect. For some of these results: The top dose, if marked as inferred, was derived from the fitted curves, not read from the paper.
# Tests used:
# Experiment in all cases: Viability of human cancer cell lines after 72 h of drug (GDSC screen)
# CX-5461 = compound: Cc1cnc(CNC(=O)c2c(=O)c3ccc(N4CCCN(C)CC4)nc3n3c2sc2ccccc23)cn1 [CX-5461]; settings: top dose 10.24 µM; top dose inferred
# Method: (§1)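 Human cancer cell lines in 384-well plates, medium with 10% serum, drug for 72 h over a 256-fold dose range (nine 2-fold or five 4-fold steps up to the top dose). Adherent lines were fixed and stained with the nucleic acid dye Syto60, suspension lines read with resazurin; signal relative to control wells, capped at 0 and 100%. One two-parameter sigmoid per drug and line, fitted in a mixed model over all curves with the slope shared within a line.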
# Obatoclax mesylate = compound: COC1=CC(c2cc3ccccc3[nH]2)=N/C1=C\c1[nH]c(C)cc1C [Obatoclax mesylate]; settings: top dose 16 µM
# Method: as §1
# STF-62247 = compound: Cc1cccc(Nc2nc(-c3ccncc3)cs2)c1 [STF-62247]; settings: top dose 10.24 µM; top dose inferred
# Method: as §1
# CP724714 = compound: COCC(=O)NC/C=C/c1ccc2ncnc(Nc3ccc(Oc4ccc(C)nc4)c(C)c3)c2c1 [CP724714]; settings: top dose 10.24 µM; top dose inferred
# Method: as §1
Cell Line,AUC (CX-5461),pIC50 (CX-5461),AUC (Obatoclax mesylate),pIC50 (Obatoclax mesylate),AUC (STF-62247),pIC50 (STF-62247),AUC (CP724714),pIC50 (CP724714)
"FTC-133 (thyroid, adherent)",0.986,< 4.99,0.627,5.63,0.978,< 4.99,0.959,< 4.99
"FU97 (stomach, adherent)",0.983,< 4.99,0.174,7.00,0.982,< 4.99,0.973,< 4.99
"FU-OV-1 (ovary, adherent)",0.982,< 4.99,0.468,6.10,0.973,< 4.99,0.966,< 4.99
"G-361 (melanoma, adherent)",0.926,< 4.99,0.064,> 7.20,0.97,< 4.99,0.946,< 4.99
"G-401 (kidney, adherent)",0.62,5.85,0.113,> 7.20,0.981,< 4.99,0.95,< 4.99
"G-402 (soft tissue, adherent)",0.819,5.07,0.389,6.35,0.958,< 4.99,0.969,< 4.99
"G-MEL (melanoma, adherent)",0.986,< 4.99,0.169,7.00,0.986,< 4.99,0.943,< 4.99
"GAMG (glioma, adherent)",0.769,5.39,0.178,7.00,0.886,< 4.99,0.971,< 4.99
"GCT (soft tissue, adherent)",0.989,< 4.99,0.644,5.62,0.985,< 4.99,0.989,< 4.99
"GMS-10 (glioma, adherent)",0.988,< 4.99,0.621,5.67,0.986,< 4.99,0.988,< 4.99
"GP5d (large intestine, adherent)",0.95,< 4.99,0.226,6.75,0.991,< 4.99,0.963,< 4.99
"H4 (glioma, adherent)",0.979,< 4.99,0.538,5.90,0.985,< 4.99,0.985,< 4.99
"H513 (mesothelioma, semi-adherent)",0.977,< 4.99,0.737,5.25,0.986,< 4.99,0.946,< 4.99
"H2369 (mesothelioma, adherent)",0.987,< 4.99,0.282,6.63,0.986,< 4.99,0.984,< 4.99
"H2373 (mesothelioma, adherent)",0.977,< 4.99,0.553,5.84,0.98,< 4.99,0.983,< 4.99
"H2461 (mesothelioma, adherent)",0.983,< 4.99,0.513,5.96,0.983,< 4.99,0.983,< 4.99

Cell Line,AUC (CX-5461),pIC50 (CX-5461),AUC (Obatoclax mesylate),pIC50 (Obatoclax mesylate),AUC (STF-62247),pIC50 (STF-62247),AUC (CP724714),pIC50 (CP724714)
"H2591 (mesothelioma, adherent)",0.951,< 4.99,0.538,5.88,0.929,< 4.99,0.971,< 4.99
"H2595 (mesothelioma, adherent)",0.911,< 4.99,0.489,6.03,0.962,< 4.99,0.978,< 4.99
"H2722 (mesothelioma, adherent)",0.983,< 4.99,0.463,6.11,0.982,< 4.99,0.967,< 4.99
"H2731 (mesothelioma, adherent)",0.875,< 4.99,0.374,6.37,0.822,5.15,0.976,< 4.99
"H2795 (mesothelioma, adherent)",0.982,< 4.99,0.69,5.47,0.803,5.30,0.956,< 4.99
"H2803 (mesothelioma, adherent)",0.96,< 4.99,0.533,5.90,0.984,< 4.99,0.976,< 4.99
"H2804 (mesothelioma, adherent)",0.982,< 4.99,0.474,6.07,0.983,< 4.99,0.963,< 4.99
"H2818 (mesothelioma, adherent)",0.989,< 4.99,0.786,5.15,0.98,< 4.99,0.974,< 4.99
"H2869 (mesothelioma, adherent)",0.969,< 4.99,0.414,6.26,0.982,< 4.99,0.953,< 4.99
"H3118 (head and neck, adherent)",0.802,5.25,0.078,> 7.20,0.983,< 4.99,0.912,< 4.99
"H3255 (lung adenocarcinoma, adherent)",0.979,< 4.99,0.298,6.62,0.973,< 4.99,0.876,< 4.99
"HARA (lung squamous cell carcinoma, adherent)",0.794,5.25,0.413,6.26,0.956,< 4.99,0.926,< 4.99
"HCC38 (breast, adherent)",0.853,5.04,0.623,5.65,0.986,< 4.99,0.977,< 4.99
"HCC70 (breast, adherent)",0.95,< 4.99,0.511,5.97,0.967,< 4.99,0.987,< 4.99
"HCC1143 (breast, adherent)",0.979,< 4.99,0.303,6.66,0.971,< 4.99,0.944,< 4.99
"HCC1187 (breast, suspension)",0.981,< 4.99,0.623,5.67,0.932,< 4.99,0.968,< 4.99
